This note sets out measurements from paper PMC12065222.

Data set [1] can be described thus: IcAR-PD-1 mIL-2, fixed MCF7, 10 µg/mL antibody. The note with it: glycan lost, control: WT PD-L1, fixed MCF7.
Data set [2] in a line: IcAR-PD-1 mIL-2, fixed MDA-MB231, 10 µg/mL antibody. The note with it: glycan lost, control: WT PD-L1, fixed MDA-MB231.

Entries with a single value are a further part of the results.

In the case of PD-L1: N35A, the other: antibody blockade of PD-L1/PD-1 interaction, other: percent blocking in data set [1] (Cemiplimab) worked out at 53%; in data set [1] (Nivolumab) it was 98.6%; in data set [1] (Pembrolizumab), 100%; in data set [2] (Cemiplimab) it was 19.6%; in data set [2] (Nivolumab), 83.2%; in data set [2] (Pembrolizumab), 91.6%.
